What is called pIC50 is the negative decadic logarithm of the IC50, by convention in mol/L.

pIC50: −log10 of the molar value.

Chain of UniProt O14744 (O14744 whole entry): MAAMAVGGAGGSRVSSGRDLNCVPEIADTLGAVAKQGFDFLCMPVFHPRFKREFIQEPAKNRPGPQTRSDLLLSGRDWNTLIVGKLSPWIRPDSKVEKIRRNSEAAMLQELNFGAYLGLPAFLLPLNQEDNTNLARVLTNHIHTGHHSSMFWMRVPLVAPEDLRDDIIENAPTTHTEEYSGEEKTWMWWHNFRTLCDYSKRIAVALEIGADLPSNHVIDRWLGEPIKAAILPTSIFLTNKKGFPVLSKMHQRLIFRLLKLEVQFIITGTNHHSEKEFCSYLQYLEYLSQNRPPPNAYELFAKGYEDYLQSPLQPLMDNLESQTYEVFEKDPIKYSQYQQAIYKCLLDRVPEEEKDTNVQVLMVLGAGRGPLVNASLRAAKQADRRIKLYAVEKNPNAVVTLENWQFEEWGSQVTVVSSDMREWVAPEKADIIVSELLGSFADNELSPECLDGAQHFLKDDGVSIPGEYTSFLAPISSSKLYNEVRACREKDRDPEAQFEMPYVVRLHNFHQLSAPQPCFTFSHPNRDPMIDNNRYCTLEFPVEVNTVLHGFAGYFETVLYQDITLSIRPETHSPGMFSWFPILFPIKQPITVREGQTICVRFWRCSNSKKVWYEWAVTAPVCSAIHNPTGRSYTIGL
Chain of UniProt O14744 (Q9BQA1 whole entry partner): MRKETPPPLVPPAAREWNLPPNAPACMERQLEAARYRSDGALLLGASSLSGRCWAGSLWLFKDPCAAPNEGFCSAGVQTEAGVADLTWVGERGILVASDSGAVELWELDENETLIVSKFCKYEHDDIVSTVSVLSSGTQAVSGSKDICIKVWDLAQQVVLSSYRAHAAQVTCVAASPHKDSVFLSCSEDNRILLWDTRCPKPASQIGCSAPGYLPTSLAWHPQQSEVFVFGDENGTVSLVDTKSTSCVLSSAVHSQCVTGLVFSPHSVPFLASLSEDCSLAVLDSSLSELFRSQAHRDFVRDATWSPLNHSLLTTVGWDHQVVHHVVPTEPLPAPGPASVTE

For the experiment, the target named is PRMT5/MEP50 Complex (Homo sapiens (Human), UniProt O14744). As to the kind of experiment: PRMT5 inhibition based on TR-FRET assay. It counts as biochemical. The following applies: 32 nM PRMT5:MEP50, 50 nM Histone-H4 peptide, 1 μM SAM. The text has this: PRMT5 Inhibition Based on TR-FRET Assay:
Protein arginine methyltransferase 5 (PRMT5) is a type II arginine methyltransferase that catalyze mono- and symmetric demethylation on arginine residues of histone or non-histone proteins in presence of S-adenosylmethionine (AdoMet or SAM) a cofactor responsible for donating the methyl group. PRMT5 is reported to be overexpressed in several human cancers. To identify compounds that inhibit the PRMT5 and decrease its activity, a TR-FRET based assay has been established. Time-resolved fluorescence resonance energy transfer (TR-FRET) HTS assays are homogeneous proximity assays where the interaction of two dye-labeled binding partners is detected by the energy transfer between a donor and an acceptor dye and the subsequent light emission by the acceptor dye. PRMT5 catalyzes Histone H4 peptide which is biotin tagged to the Lysine amino acid at carboxyl end, in presence of S-adenosyl-1-methionine (SAM) to methylate the peptide. The antibody specific to mono methylated H4 peptide (H4R3) with Ig conjugate binds to the methylated peptide, indirectly binding to the Europium lanthanide. SureLight Allophycocyanin-Streptavidin binds to the biotin tag of the peptide, therefore accepting the energy transferred from the Europium lanthanide. This energy transfer between Europium to SureLight Allophycocyanin is a direct measure of the activity/inhibition of the PRMT5 enzyme.
Assay buffer: 20 mM BICINE (pH 7.6), 25 mM NaCl, 2 mM DTT, 0.01% Tween-20 and 0.01% BSA.
The compound dilutions were prepared as 7.5% DMSO stock solutions in assay buffer. To 2 μL (7.5×) of test compound, 5 μL of PRMT5 enzyme prepared in assay buffer (Final concentration of 32 nM in 15 μL reaction volume) was added and allowed for 30 minutes pre-incubation time in a white polystyrene 384-well plate at room temperature. […] The plates were then read on Victor-3 with Excitation at 340 nm and Emissions collected at 615 and 665 nm in TR-FRET protocol. […]
On the technique in general: Time-resolved FRET reads energy transfer from a long-lived donor to a nearby acceptor.
As for `Cn1nccc1CN1CCN(CC(O)CN2CCc3ccccc3C2)C1=O` (stereo not drawn) [Example 4, 1-(3-(3,4-dihydroisoquinolin-2(1H)-yl)-2-hydroxypropyl)-3-((1-methyl-1H-pyrazol-5-yl)methyl)imidazolidin-2-one], the pIC50 was 6.35.
Compound `Cc1ccc(CN2CC(C)(C)N(CC(O)CN3CCc4ccccc4C3)C2=O)cn1` (stereo not drawn) [Example 7, 3-(3-(3,4-dihydroisoquinolin-2(1H)-yl)-2-hydroxypropyl)-4,4-dimethyl-1-((6-methylpyridin-3-yl)methyl)imidazolidin-2-one] showed a pIC50 of 6.28.
Compound `Cc1ccc(CN2CC3(CCCC3)N(CC(O)CN3CCc4ccccc4C3)C2=O)cn1` (stereo not drawn) [Example 8, 1-(3-(3,4-dihydroisoquinolin-2(1H)-yl)-2-hydroxypropyl)-3-((6-methylpyridin-3-yl)methyl)-1,3-diazaspiro[4.4]nonan-2-one] showed a negative logarithm of the IC50 (pIC50) of 6.68. Compared with the last compound, the pIC50 is 0.40 log units higher.

Values taken from US11365205B2 (Aurigene Discovery Technologies Limited, priority 2018, dated 2022).
